In a collection of fitness landscapes (doi:10.1016/j.celrep.2020.107928):
Over roughly 81,000 sequences, “one-hybrid fitness for binding NBS DNA” has its median near -0.1; the highest 2% begin near 0.36. The list shows a part of the results.

B1: Caulobacter ParB omega fusion; a variant is named by its letters at X, in order, B8GW30 (parent)
chain: MESVVVGEPGMSEGRRGLGRGLSALLGEVDAAPAQAPGEQLGGSREAPIEILQRNPDQPRRTFREEDLEDLSNSIREKGVLQPILVRPSPDTAGEYQIVAGERAWRAAQRAGLKTVPIMVRELDDLAVLEIGIIENVQRADLNVLEEALSYKVLMEKFERTQENIAQTIGKSXSHVANXMRLLXLPDEVQSYLVSGELTAXHARAIAAAADPVALAKQIIEGGLSVRETEALARKAPNLSAGKSKGGRPPRVKDTDTQALESDLSSVLGLDVSIDHRGSTGTLTITYATLEQLDDLCNRLTRGI

Variants of: B1
Assay: one-hybrid fitness for binding NBS DNA (the Noc-binding site; scaled: cognate 1, non-cognate 0); higher = stronger binding
Details: with NBS DNA site
Summary of the method: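 Values were rescaled so that cognate is 1 and non-cognate is 0. Each is a fitness, the log change in a variant's read ratio to wild type from Illumina reads of plasmids before and after selection, with three replicate libraries pooled and variants under 10 reads dropped. Selection of the Caulobacter ParB libraries, four specificity codons randomised, used E. coli USO with a HIS3 reporter, site 19 bp from the promoter, on M9-minus-histidine with 0.1 mM IPTG and 5 mM 3-AT for 48 hours at 37°C.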

Row | Variant | one-hybrid fitness for binding NBS DNA
1 | IGYM | ≤ 0.2
2 | RKIY | ≤ 0.2
3 | CVSE | ≤ 0.2
4 | WINS | ≤ 0.2
5 | TCST | ≤ 0.2
6 | RAPM | ≤ 0.2
7 | VTWG | ≤ 0.2
8 | IFNR | ≤ 0.2
9 | QDWL | ≤ 0.2
10 | AGLF | ≤ 0.2
11 | LRCA | ≤ 0.2
12 | FLSS | ≤ 0.2
13 | WTRF | ≤ 0.2
14 | ENNL | ≤ 0.2
15 | RNCC | ≤ 0.2
16 | LNCT | ≤ 0.2
17 | SPCR | ≤ 0.2
18 | INTC | ≤ 0.2
19 | MAMF | ≤ 0.2
20 | TAMR | ≤ 0.2
21 | TLDT | ≤ 0.2
22 | HCVL | ≤ 0.2
23 | EMQM | ≤ 0.2
24 | PHCM | ≤ 0.2
25 | ISAH | ≤ 0.2

Row | Variant | one-hybrid fitness for binding NBS DNA
26 | RWTQ | ≤ 0.2
27 | LPGR | ≤ 0.2
28 | GLRM | ≤ 0.2
29 | QDQR | ≤ 0.2
30 | LWED | ≤ 0.2
31 | LAAD | ≤ 0.2
32 | LLTF | ≤ 0.2
33 | AVMI | ≤ 0.2
34 | QHNR | 0.618
35 | NYWW | ≤ 0.2
36 | HSQR | ≤ 0.2
37 | CARC | ≤ 0.2
38 | SSQY | ≤ 0.2
39 | EKPC | ≤ 0.2
40 | WCSN | ≤ 0.2
41 | CWPD | ≤ 0.2
42 | SRKL | ≤ 0.2
43 | QQIM | ≤ 0.2
44 | NHCT | ≤ 0.2
45 | QHHC | ≤ 0.2
46 | GQLS | ≤ 0.2
47 | HHLV | ≤ 0.2
48 | GGDC | ≤ 0.2
49 | SYCR | ≤ 0.2
50 | RFCG | ≤ 0.2

Row | Variant | one-hybrid fitness for binding NBS DNA
51 | EEQS | ≤ 0.2
52 | DLNC | ≤ 0.2
53 | FDDR | ≤ 0.2
54 | FATS | ≤ 0.2
55 | TSAT | ≤ 0.2
56 | KSTW | ≤ 0.2
57 | RIDY | ≤ 0.2
58 | IKAI | ≤ 0.2
59 | FETL | ≤ 0.2
60 | HMRR | ≤ 0.2
61 | NCSK | ≤ 0.2
62 | LPFR | ≤ 0.2
63 | RDMD | ≤ 0.2
64 | KRHG | ≤ 0.2
65 | SFRY | ≤ 0.2
66 | QPLR | ≤ 0.2
67 | RIWR | 0.367
68 | CQNR | ≤ 0.2
69 | CECG | ≤ 0.2
70 | QIRY | 0.378
71 | THVQ | ≤ 0.2
72 | HRVI | ≤ 0.2
73 | KTSF | ≤ 0.2
74 | EAKN | ≤ 0.2
75 | LPLR | ≤ 0.2

Row | Variant | one-hybrid fitness for binding NBS DNA
76 | LPER | ≤ 0.2
77 | RSGP | ≤ 0.2
78 | AIRM | ≤ 0.2
79 | MHWM | ≤ 0.2
80 | CQPN | ≤ 0.2
81 | YIVR | ≤ 0.2
82 | PRRQ | ≤ 0.2
83 | GCNR | ≤ 0.2
84 | RYIK | ≤ 0.2
85 | DKLP | ≤ 0.2
86 | IVDI | ≤ 0.2
87 | GALK | ≤ 0.2
88 | HSLI | ≤ 0.2
89 | ARVA | ≤ 0.2
90 | IETA | ≤ 0.2
91 | TGKA | ≤ 0.2
92 | CIQT | ≤ 0.2
93 | DRTV | ≤ 0.2
94 | NEHV | ≤ 0.2
95 | ADNM | ≤ 0.2
96 | QHHM | ≤ 0.2
97 | RSMS | 0.351
98 | QLNY | ≤ 0.2
